Data as given in PubChem BioAssay AID485294 (National Center for Advancing Translational Sciences (NCATS), 2010).
Hit rate of the full screen: of about 370,000 compounds, about 150 (0.041%) were called active. Inconclusive means that the source gave no clear call. Such entries were picked first, then a sample of the others. The call rests on the fitted dose curve; in most records, active means well fitted inhibition curve with a large enough effect; inconclusive means small, poorly fitted or top-dose-only effect; inactive means flat fitted curve, though single readings scatter. No potency is given beside an inconclusive call; the fits are too rough.

Biological target: Beta-lactamase (Escherichia coli (strain K12)) (UniProt P00811)
Sequence of UniProt P00811 (P00811 whole entry, looked up): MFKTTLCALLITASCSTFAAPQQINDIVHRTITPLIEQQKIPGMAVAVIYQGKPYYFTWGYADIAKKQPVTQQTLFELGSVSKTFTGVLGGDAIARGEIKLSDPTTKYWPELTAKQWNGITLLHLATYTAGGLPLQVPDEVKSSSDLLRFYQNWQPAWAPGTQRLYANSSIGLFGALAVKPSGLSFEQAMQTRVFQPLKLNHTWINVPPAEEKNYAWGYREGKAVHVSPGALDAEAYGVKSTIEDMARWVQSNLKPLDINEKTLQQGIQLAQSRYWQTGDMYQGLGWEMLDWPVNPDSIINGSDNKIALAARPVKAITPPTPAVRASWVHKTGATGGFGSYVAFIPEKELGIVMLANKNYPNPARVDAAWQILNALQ
Test: qHTS Inhibitors of AmpC Beta-Lactamase (assay with detergent); further: nearly all actives have a fitted effect of over 25% in size;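 on activity change, negative = inhibition: 0% = no-compound wells and -100% = no-enzyme wells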
Details: AmpC hydrolysis of nitrocefin, absorbance 480 nm, 0.01% Triton; activity change, negative = inhibition: at 114 µM (top of the series)
Outline: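 AmpC (5.3 nM in the dispensed reagent) in 20 mM phosphate pH 7.0 with 0.01% (detergent screen) or 0.0001% Triton X-100 was preincubated with compounds for 15 min at room temperature. Nitrocefin was then added from an 800 uM solution, and hydrolysis was followed at 480 nm.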
Potency means the concentration at half of the fitted maximal effect; tags describe the fitted curve by direction and shape.

Row | SMILES | Potency | activity change, negative = inhibition
1 | COC(=O)c1c(NC(=O)c2ccccc2[N+](=O)[O-])sc2c1CC(C)(C)NC2(C)C | inconclusive [inhibitor, full curve, poor fit] | 
2 | O=C(c1ccc(OC2CCN(Cc3cccc(OCCO)c3)CC2)cc1)N1CCCC1 | inconclusive [inhibitor, full curve, poor fit] | 
3 | O=C(CNC1=NCCC1)c1ccc(Cl)cc1 | inconclusive [inhibitor, single point] | 
4 | C=CCSc1nnc(CNS(=O)(=O)c2ccc(C)cc2)n1C | inconclusive [inhibitor, partial curve] | 
5 | C=CCOc1cccc(C2C(C(=O)c3ccc(C)o3)=C(O)C(=O)N2CCN(C)C)c1 (configuration not stated) | inconclusive [inhibitor, full curve, poor fit] | 
6 | O=C(Nc1cc2c(cc1Cl)OCCO2)c1ccco1 |  | inactive: -5.29%
7 | CCc1ccc(N(CC(=O)NC(C)(C)C)C(=O)CNC(=O)c2cccs2)cc1 | inconclusive [inhibitor, partial curve, poor fit] | 
8 | Cc1cccc(NC(=S)NNC(=O)CC(C)O)c1C (configuration not stated) | inconclusive [inhibitor, full curve, poor fit] | 
9 | Cc1cccn2c(=O)nc(SCC(=O)NCCc3ccccc3)nc12 | inconclusive [inhibitor, full curve, poor fit] | 
10 | CCN1CCN(C(c2cccs2)C(C)NC(=O)c2ccccc2OC)CC1 (configuration not stated) | inconclusive [inhibitor, full curve, poor fit] | 
11 | Cc1ccc(NC(=O)CSc2nnc(-c3ccncc3)n2C)cc1C | inconclusive [inhibitor, partial curve] | 
12 | O=C(Nc1nc2c(Cl)ccc(Cl)c2s1)c1ccco1 | inconclusive [inhibitor, partial curve] | 
13 | CC1CN(C(=O)CSc2nnc(-c3cccs3)n2N)CC(C)O1 (configuration not stated) | inconclusive [inhibitor, full curve] | 
14 | CCOC(=O)c1cnc(SCC(=O)Nc2nnc(CC)s2)nc1N | inconclusive [inhibitor, full curve, poor fit] | 
15 | CC(=O)Nc1ccc(S(=O)(=O)N2CCN(S(=O)(=O)N3CCOCC3)CC2)cc1 | inconclusive [inhibitor, full curve, poor fit] | 
16 | COc1ccc(OC)c(C(c2nnnn2CCc2ccccc2)N2CCC(C(N)=O)CC2)c1 (configuration not stated) | inconclusive [inhibitor, full curve, poor fit] | 
17 | Cn1c(NC(=O)c2ccco2)cc(=O)n(C)c1=O | inconclusive [inhibitor, full curve, poor fit] | 
18 | CCOC(=O)C(C(=O)Nc1ccc(C)cc1)C1CCCCC1 (configuration not stated) |  | inactive: 0.539%
19 | C=CCNC(=O)Cn1nnc(-c2ccc(-c3ccc(OC)cc3)cc2)n1 | inconclusive [inhibitor, full curve] | 
20 | Cc1cc(N(CC(=O)O)S(C)(=O)=O)ccc1Br | inconclusive [inhibitor, full curve, poor fit] | 
21 | CC(=O)OCC(=O)N1N=C(c2ccc3ccccc3c2)CC1c1ccccc1 (configuration not stated) |  | inactive: -4.16%
22 | COc1ccc(-c2nc3cnccn3c2Nc2ccc3c(c2)OCO3)cc1 | inconclusive [inhibitor, partial curve, poor fit] | 
23 | Cc1ccc(S(=O)(=O)N2CCN(C(=O)CN3CCCC3)C2)cc1 | inconclusive [inhibitor, partial curve] | 

Row | SMILES | Potency | activity change, negative = inhibition
24 | C=CCc1c(C)nc2nc(SCC(=O)Nc3ccc(OCC)cc3)nn2c1C |  | inactive: 7.02%
25 | Cc1cnc(C(=O)OCC(=O)c2ccc(C3CCCCC3)cc2)cn1 | inconclusive [inhibitor, partial curve, poor fit] | 
26 | Cc1ccc(NC(=O)Nc2cc(S(C)(=O)=O)ccc2Cl)cc1 |  | inactive: 3.17%
27 | O=C(N/N=C/c1ccccc1[N+](=O)[O-])c1ccc(CN2CCOCC2)cc1 | inconclusive [inhibitor, partial curve, poor fit] | 
28 | Cc1ccccc1CS(=O)(=O)CCC(=O)NCCCN1CCOCC1 | inconclusive [inhibitor, partial curve, poor fit] | 
29 | CCNc1nc(C#N)nc2c1ncn2-c1cc(F)cc(F)c1 |  | inactive: 1.26%
30 | CCN1C(=S)N[C@@H](c2cccs2)C(C(=O)OC)=C1C | inconclusive [inhibitor, full curve, poor fit] | 
31 | Cc1cc(=O)oc2c(C)c(OCC(=O)N(C)C)ccc12 | inconclusive [inhibitor, full curve, poor fit] | 
32 | CCN(CC)S(=O)(=O)c1cccc(NC(=O)CCSc2ccc(Cl)cc2)c1 | inconclusive [inhibitor, full curve, poor fit] | 
33 | O=C(Cc1ccc(Cl)cc1Cl)Nc1ccc(OC(F)F)c(Cl)c1 | inconclusive [inhibitor, full curve] | 
34 | CC(C)(C)C(=O)Nc1nc2c(s1)COc1ccccc1-2 | inconclusive [inhibitor, full curve, poor fit] | 
35 | CCN1C(=O)c2cccc3c(S(=O)(=O)N(C(=O)c4cccnc4)c4ccc(OC)cc4)ccc1c23 | inconclusive [inhibitor, partial curve] | 
36 | O=C(N/C(=C\c1cccnc1)C(=O)N1CCCCC1)c1cccc(Br)c1 | inconclusive [inhibitor, partial curve] | 
37 | CN(CC(=O)Nc1cccc(F)c1)C(=O)c1cccnc1Sc1ccccc1Cl | inconclusive [inhibitor, partial curve] | 
38 | COc1ccc(-c2noc(CCC(=O)NCc3ccc(OC)cc3OC)n2)cc1 |  | inactive: 3.46%
39 | Cc1nn(Cc2ccccc2Cl)c2sc(C(=O)NCCCn3ccnc3)cc12 | inconclusive [inhibitor, full curve] | 
40 | CC(=O)c1ccc(NC(=O)CSc2nc3[nH]ncc3c(=O)[nH]2)cc1 | inconclusive [inhibitor, full curve, poor fit] | 
41 | Nn1c(-c2ccccc2Cl)nnc1-c1ccccc1Cl |  | inactive: -11.8%
42 | CCN(CC)CCOC(c1ccccc1)c1ccc(C)cc1 (configuration not stated) |  | inactive: 3.73%
43 | Cc1noc(C)c1C(=O)NCc1cccs1 | inconclusive [inhibitor, single point] | 
44 | Cc1cccc(C)c1NC1=NCCCCS1 | inconclusive [inhibitor, full curve] | 
45 | Cc1ccc(S(=O)(=O)CCC(=O)Nc2nnc(-c3cccs3)o2)cc1 | inconclusive [inhibitor, full curve, poor fit] | 
46 | O=C(Nc1cccnc1)c1cc2nc(C3CC3)cc(C(F)(F)F)n2n1 | inconclusive [inhibitor, full curve, poor fit] | 

Row | SMILES | Potency | activity change, negative = inhibition
47 | COc1ccc(Nc2nc(N)nc(CSc3nc4cc(OC)ccc4s3)n2)cc1 |  | inactive: -0.0795%
48 | O=C(c1ccccc1)c1ccc(Sc2ccc([N+](=O)[O-])cc2)cc1 | inconclusive [inhibitor, full curve, poor fit] | 
49 | CC(C)c1nn2c(=O)cc(COC(=O)CNC(=O)c3ccccc3)nc2s1 | inconclusive [inhibitor, full curve, poor fit] | 
50 | CC1CC(C)CN(C(=O)C2CCN(S(=O)(=O)c3cccs3)CC2)C1 (configuration not stated) |  | inactive: 3.13%
51 | COC(=O)c1ccc(Cl)c(NC(=O)C2CCN(S(=O)(=O)Cc3ccccc3)CC2)c1 | inconclusive [inhibitor, full curve, poor fit] | 
52 | CCOc1ccc(N2C(=O)C3C(c4ccc(OC)cc4OC)NC(CCSC)(C(=O)OC)C3C2=O)cc1 (configuration not stated) | inconclusive [inhibitor, partial curve, poor fit] | 
53 | Brc1cccc(OCCCCn2cncn2)c1 |  | inactive: -12.9%
54 | C[C@H](NC(=O)c1nc[nH]c1C(=O)N1CCc2ccccc2C1)C(=O)OCc1ccccc1 |  | inactive: 3.09%
55 | CCOC(=O)c1c(C)c(C(=O)NCc2ccc3c(c2)OCO3)c(C)n1C | inconclusive [inhibitor, partial curve] | 
56 | COc1cccc2c1NC(C(=O)O)C1CC=CC21 (configuration not stated) | inconclusive [inhibitor, full curve, poor fit] | 
57 | COc1ccc(C(=O)Nc2ncc3c(n2)-c2ccccc2CC3)cc1 | inconclusive [inhibitor, partial curve, poor fit] | 
58 | CN1C(=O)N2CN(C3CCCCC3)CN3C(=O)N(C)C1C23 (configuration not stated) | inconclusive [inhibitor, partial curve] | 
59 | Cc1ccc(-c2ccc(/C=N\NC(=O)c3cc4c(ccc5ccccc54)o3)o2)cc1[N+](=O)[O-] |  | inactive: -6.45%
60 | C=CCOc1cccc(C(=O)Nc2ncn[nH]2)c1 | inconclusive [inhibitor, partial curve] | 
61 | O=C(Nc1cccc(Cl)c1)c1nc[nH]c1C(=O)N1CCN(c2ccccc2)CC1 |  | inactive: -0.286%
62 | COc1ccc(-c2nc(CN3CCCCC3CCc3ccccn3)c(C)o2)cc1 (configuration not stated) |  | inactive: -7.41%
63 | CC(OC(=O)c1cccnc1Cl)C(=O)Nc1ccc2c(c1)OCCO2 (configuration not stated) | inconclusive [inhibitor, full curve, poor fit] | 
64 | O=C(CN(CC1CCCO1)C(=O)CCC(=O)Nc1nccs1)NCc1ccc2c(c1)OCO2 (configuration not stated) | inconclusive [inhibitor, full curve, poor fit] | 
65 | CCCCn1nc2cc(C(=O)NC3CCCc4ccccc43)ccc2c1OCC (configuration not stated) |  | inactive: 4.09%
66 | Cc1ccc(CNC(=O)c2c(-c3cccc(Br)c3)noc2C)o1 |  | inactive: 20.3%
67 | Cc1ccc(C)c(Cn2nc(C)n3c(cc4cc(C)ccc43)c2=O)c1 |  | inactive: 2.59%
